Measurements: article PMC4336329 (PLoS ONE, 2015)
About 2,200 (0.71%) of roughly 310,000 compounds showed an effect of 50% or more. Effects have a minus sign here. The list shows a part of the results.

Each compound was assayed against human ether-à-go-go-related gene (hERG) potassium channel (human, UniProt Q12809) (assay: primary screen, population patch clamp on CHO cells stably expressing hERG).
human ether-à-go-go-related gene (hERG) potassium channel, sequence (Q12809 whole entry, looked up): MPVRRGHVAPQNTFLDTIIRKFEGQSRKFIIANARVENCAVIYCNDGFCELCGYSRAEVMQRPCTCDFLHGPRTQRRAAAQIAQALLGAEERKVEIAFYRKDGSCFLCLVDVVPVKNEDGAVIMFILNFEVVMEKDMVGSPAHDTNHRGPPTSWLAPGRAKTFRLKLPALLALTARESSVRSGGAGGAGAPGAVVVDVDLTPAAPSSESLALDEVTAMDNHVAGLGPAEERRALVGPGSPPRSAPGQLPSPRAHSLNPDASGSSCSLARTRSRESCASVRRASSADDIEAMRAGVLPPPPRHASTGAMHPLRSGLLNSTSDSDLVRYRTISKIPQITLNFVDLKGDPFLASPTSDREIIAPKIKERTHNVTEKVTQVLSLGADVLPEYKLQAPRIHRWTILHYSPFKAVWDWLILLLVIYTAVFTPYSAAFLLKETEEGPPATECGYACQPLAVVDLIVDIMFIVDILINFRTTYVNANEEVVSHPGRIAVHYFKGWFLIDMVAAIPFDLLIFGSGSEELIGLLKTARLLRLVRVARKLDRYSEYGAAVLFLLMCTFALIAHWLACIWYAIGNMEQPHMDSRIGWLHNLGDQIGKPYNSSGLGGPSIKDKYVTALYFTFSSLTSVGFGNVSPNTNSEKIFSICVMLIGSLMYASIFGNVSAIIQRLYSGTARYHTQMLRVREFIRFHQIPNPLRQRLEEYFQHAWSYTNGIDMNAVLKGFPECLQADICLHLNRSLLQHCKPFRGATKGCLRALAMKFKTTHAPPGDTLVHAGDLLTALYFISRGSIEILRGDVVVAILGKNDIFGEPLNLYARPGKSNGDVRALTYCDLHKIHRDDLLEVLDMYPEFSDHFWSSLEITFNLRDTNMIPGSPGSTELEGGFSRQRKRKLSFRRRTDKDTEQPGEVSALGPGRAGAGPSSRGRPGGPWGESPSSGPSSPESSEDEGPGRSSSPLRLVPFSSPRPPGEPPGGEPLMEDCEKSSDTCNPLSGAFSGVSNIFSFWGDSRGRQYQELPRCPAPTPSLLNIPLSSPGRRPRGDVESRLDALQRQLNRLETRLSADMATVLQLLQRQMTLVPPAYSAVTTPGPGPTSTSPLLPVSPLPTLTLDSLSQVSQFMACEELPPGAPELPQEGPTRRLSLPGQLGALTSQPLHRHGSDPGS

Compared with C=CCN1C(=O)c2ccc(C(=O)OCC(=O)N(C)C3CCCCC3)cc2C1=O, CCOC(=O)C1CCN(C(=O)CNC(=O)Cn2c(C)cc3ccccc3c2=O)CC1 is higher in “hERG current change (%, negative = inhibition) at 1uM” value: 6.46% for the first, 10.5% for the second.

First: Cc1cc(CNC(=O)COc2ccc(F)cc2F)c2ccccc2n1
Second: CCCCc1cc(=O)oc2cc(C)cc(OCC(=O)NCc3cccnc3)c12
The “hERG current change (%, negative = inhibition) at 1uM” value of the first is higher: -6.42% for the first, -18.7% for the second.

First: COc1ccccc1CNC(=O)C(NS(=O)(=O)c1ccc2c(c1)oc(=O)n2C)C(C)C (stereo not drawn)
Second: COc1ccccc1N1CCN(C(=O)COc2cc(C)cc(C)c2)CC1
The “hERG current change (%, negative = inhibition) at 1uM” value of the first is lower: 4.06% for the first, 20.7% for the second.

First: Cc1cc(F)ccc1NC(=O)CCCN(C)S(=O)(=O)c1ccc(F)cc1
Second: O=C(Nc1ccc2c(c1)OCO2)Nc1ccc(F)cc1F
The “hERG current change (%, negative = inhibition) at 1uM” value of the first is lower: 7.23% for the first, 11.7% for the second.

Going from CCC1(CCc2ccncc2)C(=O)NC(=O)NC1=O to CCc1ccc(/C=C2\Oc3cc(OS(C)(=O)=O)ccc3C2=O)cc1, the “hERG current change (%, negative = inhibition) at 1uM” value rises from 1.32% to 6.53%.

First: COc1ccccc1C(c1nnnn1CC1CCCO1)N1CCN(c2ccccc2)CC1 (stereo not drawn)
Second: CN(C)C(=O)CSC1c2ccccc2C(=O)N1c1ccccc1 (stereo not drawn)
The “hERG current change (%, negative = inhibition) at 1uM” value of the first is higher: 12.8% for the first, 4.41% for the second.

Going from CCn1cc(C(=O)N[C@@H](CCSC)C(=O)NCCCO)c(=O)c2cc3c(cc21)OCO3 to O=C(NCc1ccc2c(c1)OCO2)C1CCN(c2nccc(C(F)(F)F)n2)CC1, the “hERG current change (%, negative = inhibition) at 1uM” value falls from 15.9% to 11.6%.

Compared with Cc1ccc2c(c1)C1CC(C)(O2)N(c2cccc(C(=O)N3CCN(c4ccccn4)CC3)c2)C(=O)N1 (stereo not drawn), COc1ccc(C(=O)Nc2ccccc2C(=O)Nc2cccc(C)n2)cc1 is higher in “hERG current change (%, negative = inhibition) at 1uM” value: -2.42% for the first, 12.6% for the second.

Compared with CCOC(=O)N1CCC(NC(=O)c2cc(C(=O)Nc3ccc(S(=O)(=O)N4CCOCC4)cc3)ccc2CO)CC1, CCOc1cc(N2CCOCC2)c(OCC)cc1NC(=O)c1ccc(OC(C)C)cc1 is lower in “hERG current change (%, negative = inhibition) at 1uM” value: 19% for the first, 6.56% for the second.

First: O=C(COC(=O)c1ccco1)Nc1nc2c(F)c(F)c(F)cc2s1
Second: COc1ccc(OC)c(NC(=O)CSc2nnc(N)s2)c1
The “hERG current change (%, negative = inhibition) at 1uM” value of the first is lower: 8.46% for the first, 15.2% for the second.

Going from CC(=O)c1c(O)cc(O)cc1CC(=O)O to Cc1ccc([N+](=O)[O-])cc1S(=O)(=O)N1CCCC1, the “hERG current change (%, negative = inhibition) at 1uM” value rises from -5.77% to 12.5%.

Going from CCC(CC)C1C(C#N)=C(N)Oc2n[nH]c(-c3ccccc3)c21 (stereo not drawn) to O=C(Nc1ccc(N2CCOCC2)c(Cl)c1)C1CCCCC1, the “hERG current change (%, negative = inhibition) at 1uM” value falls from 18.3% to 13.1%.
